Experimental data published in the supplement of paper PMC7826260.
The list shows a part of the results. Viral Rep nickase domains cut single-stranded DNA in vitro (3 µM enzyme, 1 h, 37 °C); shown is the middle of each 90-letter strand. Uncut reads are compared with the no-enzyme pool on a log2 scale; the lower, the more was cut; hits are not called. Shares of all reads are compared; values above 0 arise when much of the pool is cut.

These sequences were tested on T1, Rep nickase domain of tomato golden mosaic virus (assay: uncleaved DNA left, log2 of reads against the no-enzyme library (log2 ratio); higher = less cleavage (more negative = more Rep cleavage of the k-mer); sequences stand for … in CTCGTCCG…ACCGGAGA).
T1 sequence (residues 1-124, tag not shown): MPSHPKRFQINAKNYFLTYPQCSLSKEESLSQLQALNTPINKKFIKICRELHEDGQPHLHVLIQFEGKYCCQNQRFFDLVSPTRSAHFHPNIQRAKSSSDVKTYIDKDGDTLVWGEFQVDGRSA
Description: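 A pool of 90-nt single-stranded DNAs with seven random bases just before the constant AC of the nick site (name = the seven bases) was cut by 3 µM recombinant His6-SUMO-tagged Rep nickase domain (300 nM DNA, 50 mM HEPES pH 8.0, 50 mM NaCl, 1 mM MnCl2, 1 h, 37 °C, three replicates). Uncut DNA was amplified and sequenced.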

Sequence	uncleaved DNA left (log2)
GTCCCTT	0.138
ACAACCA	-0.0202
CAAAGCT	-0.245
TACCCCA	-0.0548
GAGCTAT	-0.0572
TCGCTAA	0.0573
GTGATGC	0.125
AAAAGAG	0.0883
AGACCCT	0.0613
GAACACT	0.00186
CACTGGG	-0.244
ACGCCAC	-0.192
GCGTGCT	0.0581
CATCCTC	-0.0937
GTGCTGC	0.108
ATATCTA	-0.165
CAGTTTC	-0.102
AAGGTGC	0.0526
GGAAGAC	0.0886
GAAAGGC	0.0383

Sequence	uncleaved DNA left (log2)
TGAAGCG	0.0406
GCGATCA	-0.0646
CAGCGGC	-0.0181
GCATACA	-0.0104
TATTCGT	-0.165
CGCGGAT	0.11
TTTCGGC	0.0237
ACGTGAT	0.137
TGGGTGA	-0.087
GGTGACC	0.0882
TAGGCTA	0.154
ATCCCTA	-0.0278
TGTCCAT	-0.00463
CTGTGGC	0.088
TGGTTGC	-0.104
TGAATAT	0.0402
AGGTATT	-0.162
TGACAAC	0.0404
CTTCATT	-0.073
TGACCCG	0.0334
